Lines with a small IC50 respond at low doses; where the fit passes the top or lowest dose, that dose stands as a limit. AUC, from the same fit, is the share of area under the viability curve across the 256-fold dose range; the more sensitive the line, the further below 1. For some of these results: Where the top dose is marked as inferred, it was calculated from the reported fits.
What was measured:
Experiment in all cases: Viability of human cancer cell lines after 72 h of drug (GDSC screen)
BMX-IN-1 (QL-XII-61) = compound: C=CC(=O)Nc1cc(-n2c(=O)ccc3cnc4ccc(-c5ccc(NS(C)(=O)=O)cc5)cc4c32)ccc1C [BMX-IN-1 (QL-XII-61)]; settings: top dose 10 µM; top dose inferred
Procedure: (§1)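 Human cancer cell lines in 384-well plates, medium with 10% serum, drug for 72 h over a 256-fold dose range (nine 2-fold or five 4-fold steps up to the top dose). Adherent lines were fixed and stained with the nucleic acid dye Syto60, suspension lines read with resazurin; signal relative to control wells, capped at 0 and 100%. One two-parameter sigmoid per drug and line, fitted in a mixed model over all curves with the slope shared within a line.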

CCT018159 = compound: CCc1cc(-c2n[nH]c(C)c2-c2ccc3c(c2)OCCO3)c(O)cc1O [CCT018159]; settings: top dose 10 µM; top dose inferred
Procedure: as §1

UNC1215 = compound: O=C(c1ccc(C(=O)N2CCC(N3CCCC3)CC2)c(Nc2ccccc2)c1)N1CCC(N2CCCC2)CC1 [UNC1215]; settings: top dose 1 µM; top dose inferred
Procedure: as §1

Vismodegib = compound: CS(=O)(=O)c1ccc(C(=O)Nc2ccc(Cl)c(-c3ccccn3)c2)c(Cl)c1 [Vismodegib]; settings: top dose 10 µM; top dose inferred
Procedure: as §1

17-AAG = compound: C=CCNC1=C2C[C@@H](C)C[C@H](OC)[C@H](O)[C@@H](C)/C=C(\C)[C@H](OC(N)=O)[C@@H](OC)/C=C\C=C(/C)C(=O)NC(=CC1=O)C2=O [17-AAG]; settings: top dose 1 µM
Procedure: as §1

TG101348 = compound: Cc1cnc(Nc2ccc(OCCN3CCCC3)cc2)nc1Nc1cccc(S(=O)(=O)NC(C)(C)C)c1 [TG101348]; settings: top dose 10.24 µM
Procedure: as §1

VX-11e = compound: Cc1cnc(Nc2ccc(F)cc2Cl)nc1-c1c[nH]c(C(=O)N[C@H](CO)c2cccc(Cl)c2)c1 [VX-11e]; settings: top dose 5.12 µM; top dose inferred
Procedure: as §1

Dimethyloxalylglycine = compound: COC(=O)CNC(=O)C(=O)OC [Dimethyloxalylglycine]; settings: top dose 4000 µM; top dose inferred
Procedure: as §1

BIX02189 = compound: CN(C)Cc1cccc(N=C(c2ccccc2)c2c(O)[nH]c3cc(C(=O)N(C)C)ccc23)c1 [BIX02189]; settings: top dose 20 µM; top dose inferred
Procedure: as §1

OSI-027 = compound: COc1cccc2cc(-c3nc([C@H]4CC[C@H](C(=O)O)CC4)n4ncnc(N)c34)[nH]c12 [OSI-027]; settings: top dose 20 µM
Procedure: as §1

| Cell Line | AUC (BMX-IN-1 (QL-XII-61)) | IC50 (BMX-IN-1 (QL-XII-61)) | AUC (CCT018159) | IC50 (CCT018159) | AUC (UNC1215) | IC50 (UNC1215) | AUC (Vismodegib) | IC50 (Vismodegib) | AUC (17-AAG) | IC50 (17-AAG) | AUC (TG101348) | IC50 (TG101348) | AUC (VX-11e) | IC50 (VX-11e) | AUC (Dimethyloxalylglycine) | IC50 (Dimethyloxalylglycine) | AUC (BIX02189) | IC50 (BIX02189) | AUC (OSI-027) | IC50 (OSI-027) |
| --- | --- | --- | --- | --- | --- | --- | --- | --- | --- | --- | --- | --- | --- | --- | --- | --- | --- | --- | --- | --- |
| A549 (lung adenocarcinoma, adherent) | 0.981 | > 10 µM | 0.764 | 4.08 µM | 0.974 | > 1000 nM | 0.957 | > 10 µM | 0.154 | 4.49 nM | – | – | – | – | – | – | – | – | – | – |
| DIFI (large intestine, adherent) | 0.986 | > 10 µM | 0.973 | > 10 µM | 0.984 | > 1000 nM | 0.988 | > 10 µM | 0.617 | 133 nM | – | – | – | – | – | – | – | – | – | – |
| LOXIMVI (melanoma, semi-adherent) | 0.91 | > 10 µM | 0.883 | 8.68 µM | 0.989 | > 1000 nM | – | – | 0.315 | 20.3 nM | 0.875 | 8.18 µM | 0.746 | 1470 nM | 0.567 | 372 µM | 0.971 | > 20 µM | 0.768 | 6.71 µM |
| SU-DHL-10 (B-cell lymphoma, suspension) | 0.97 | > 10 µM | 0.922 | 7.29 µM | 0.997 | > 1000 nM | – | – | 0.931 | 783 nM | 0.55 | 0.846 µM | 0.973 | > 5120 nM | 0.055 | 17.8 µM | 0.891 | 11.6 µM | 0.089 | 0.117 µM |
| MKN7 (stomach, adherent) | 0.981 | > 10 µM | 0.89 | > 10 µM | 0.982 | > 1000 nM | 0.926 | > 10 µM | 0.948 | > 1000 nM | – | – | – | – | – | – | – | – | – | – |
| NCI-N87 (stomach, adherent) | 0.961 | > 10 µM | 0.889 | > 10 µM | 0.976 | > 1000 nM | 0.979 | > 10 µM | 0.425 | 35.6 nM | – | – | – | – | – | – | – | – | – | – |
| SK-MEL-28 (melanoma, adherent) | 0.984 | > 10 µM | 0.927 | > 10 µM | 0.987 | > 1000 nM | – | – | 0.595 | – | 0.981 | > 10.2 µM | 0.824 | 2970 nM | 0.61 | 497 µM | 0.976 | > 20 µM | 0.729 | 5.53 µM |
| HCC-366 (non-small cell lung carcinoma, adherent) | 0.978 | > 10 µM | – | – | 0.985 | > 1000 nM | 0.988 | > 10 µM | 0.949 | > 1000 nM | – | – | – | – | – | – | – | – | – | – |
| NCC021 (kidney, adherent) | 0.977 | > 10 µM | – | – | 0.983 | > 1000 nM | 0.971 | > 10 µM | 0.949 | > 1000 nM | 0.806 | 6.3 µM | 0.956 | > 5120 nM | – | – | 0.924 | > 20 µM | 0.398 | 0.623 µM |
| VMRC-LCD (lung adenocarcinoma, adherent) | 0.986 | > 10 µM | 0.934 | > 10 µM | 0.992 | > 1000 nM | 0.993 | > 10 µM | 0.91 | > 1000 nM | – | – | – | – | – | – | – | – | – | – |
| RCC-ER (kidney, adherent) | 0.977 | > 10 µM | – | – | 0.984 | > 1000 nM | 0.986 | > 10 µM | 0.884 | > 1000 nM | 0.829 | 7.45 µM | 0.973 | > 5120 nM | – | – | 0.986 | > 20 µM | 0.797 | 10.8 µM |
| ESO51 (oesophagus, semi-adherent) | 0.973 | > 10 µM | – | – | 0.973 | > 1000 nM | 0.958 | > 10 µM | 0.704 | 301 nM | 0.909 | > 10.2 µM | 0.566 | 520 nM | – | – | 0.948 | > 20 µM | 0.625 | 3.18 µM |
| SK-GT-2 (stomach, adherent) | 0.963 | > 10 µM | 0.864 | 9.5 µM | 0.984 | > 1000 nM | 0.974 | > 10 µM | 0.706 | 246 nM | – | – | – | – | – | – | – | – | – | – |
| NCI-H929 (myeloma, suspension) | 0.786 | 3.64 µM | 0.82 | 4.69 µM | 0.99 | > 1000 nM | 0.95 | > 10 µM | 0.829 | 501 nM | – | – | – | – | – | – | – | – | – | – |
| OVCAR-3 (ovary, adherent) | 0.943 | > 10 µM | 0.914 | > 10 µM | 0.985 | > 1000 nM | – | – | 0.811 | 597 nM | 0.987 | > 10.2 µM | 0.985 | > 5120 nM | 0.442 | 171 µM | 0.985 | > 20 µM | 0.986 | > 20 µM |
| NCC010 (kidney, adherent) | 0.979 | > 10 µM | 0.92 | > 10 µM | 0.959 | > 1000 nM | 0.986 | > 10 µM | 0.931 | > 1000 nM | – | – | – | – | – | – | – | – | – | – |
| PWR-1E (prostate, adherent) | 0.798 | 4.73 µM | 0.849 | 7.42 µM | 0.985 | > 1000 nM | 0.984 | > 10 µM | 0.662 | 176 nM | – | – | – | – | – | – | – | – | – | – |
